In the supplement of paper PMC4967469:
Lines with a small IC50 respond at low doses; a limit (>, <) means that the fit lies beyond the doses tested. For AUC the same curve is integrated over the 256-fold range of doses and scaled to a fraction: 1 means no effect, lower means more sensitive. Any top dose called inferred comes from the curve model; the source does not state it. For part of these data: Drugs with an entry number were screened twice under separate entries, and the two screens often disagree.

Legend:
Assay in all cases: Viability of human cancer cell lines after 72 h of drug (GDSC screen)
[1] = compound: O=C1NC(=O)c2c1c(-c1ccccc1Cl)cc1[nH]c3ccc(O)cc3c21 [Wee1 inhibitor 681640]; conditions: top dose 2 µM; top dose inferred
Experimental: (§1)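 Human cancer cell lines in 384-well plates, medium with 10% serum, drug for 72 h over a 256-fold dose range (nine 2-fold or five 4-fold steps up to the top dose). Adherent lines were fixed and stained with the nucleic acid dye Syto60, suspension lines read with resazurin; signal relative to control wells, capped at 0 and 100%. One two-parameter sigmoid per drug and line, fitted in a mixed model over all curves with the slope shared within a line.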

[2] = compound: CCNc1cc(NC2CCC(O)CC2)nc(Nc2ccc3c(ccn3Cc3ccccc3)c2)n1 [CGP-082996 (CINK4)]; conditions: top dose 5.12 µM; top dose inferred
Experimental: as §1

[3] = compound: COc1cc(-c2nn([C@H]3CC[C@H](N4CCN(C(C)=O)CC4)CC3)c3ncnc(N)c23)ccc1NC(=O)c1cc2ccccc2n1C [A-770041]; conditions: top dose 5.12 µM; top dose inferred
Experimental: as §1

[4] = compound: NC(=O)c1ccc(N(C(N)=O)c2c(F)cccc2F)nc1-c1ccc(F)cc1F [VX-702]; conditions: top dose 2 µM; top dose inferred
Experimental: as §1

[5] = compound: Cc1cc(N2CCOCC2)cc2[nH]c(-c3c(NC[C@@H](O)c4cccc(Cl)c4)cc[nH]c3=O)nc12 [BMS-536924]
Experimental: as §1

[6] = compound: Cc1cccc(-c2[nH]c(C(C)(C)C)nc2-c2ccc3nccnc3c2)n1 [SB-525334]; conditions: top dose 20 µM; top dose inferred
Experimental: as §1

[7] = compound: CC(C)=CC[C@@H](O)C1=CC(=O)c2c(O)ccc(O)c2C1=O [Shikonin]; conditions: top dose 16 µM; top dose inferred
Experimental: as §1

[8] = compound: COc1cc(N2CCN(C)CC2)ccc1Nc1ncc2c(n1)N(C)c1ccccc1C(=O)N2C [XMD8-85]; conditions: top dose 8 µM; top dose inferred
Experimental: as §1

[9] = compound: O=C(c1cc(Cc2n[nH]c(=O)c3ccccc23)ccc1F)N1CCN(C(=O)C2CC2)CC1 [Olaparib]
Experimental: as §1

[10] = compound: CNC(=O)c1ccc(Nc2cc(Nc3ccccc3S(=O)(=O)C(C)C)c3cc[nH]c3n2)nc1 [HG-5-113-01]; conditions: top dose 10 µM; top dose inferred
Experimental: as §1

[11] = compound: Cc1ccc(-n2nc(C(C)(C)C)cc2NC(=O)Nc2ccc(OCCN3CCOCC3)c3ccccc23)cc1 [BIRB 0796]; conditions: top dose 10 µM; top dose inferred
Experimental: as §1

[12] = top dose 4 µM, screen: GDSC drug entry 1091, top dose inferred
[13] = top dose 5.12 µM, screen: GDSC drug entry 62
[14] = top dose 5 µM, screen: GDSC drug entry 1017, top dose inferred
[15] = top dose 10 µM, screen: GDSC drug entry 1495

“GR-ST (lymphoblastic leukaemia, suspension)” showed an AUC [1] of 0.782, an IC50 [1] of 1020 nM and an AUC [2] of 0.868. The IC50 [2] was > 5.12 µM, the AUC [3] was 0.969 and the IC50 [3] was > 5.12 µM. The AUC [4] was 0.97, the IC50 [4] was > 2000 nM and the AUC [5, 12] was 0.8. For the same cell line, the IC50 [5, 12] was 2.43 µM, the AUC [5, 13] was 0.778 and the IC50 [5, 13] was 2.54 µM. For the same cell line, the AUC [6] was 0.927, the IC50 [6] was > 20 µM and the AUC [7] was 0.273. For the same cell line, the IC50 [7] was 195 nM, the AUC [8] was 0.869 and the IC50 [8] was > 8 µM. The AUC [9, 14] was 0.936, the IC50 [9, 14] was > 5 µM and the AUC [9, 15] was 0.849. The IC50 [9, 15] was > 10 µM, the AUC [10] was 0.731 and the IC50 [10] was 3.32 µM. For the same cell line, the AUC [11] was 0.979 and the IC50 [11] was > 10 µM.

With “GRANTA-519 (B-cell lymphoma, suspension)” the AUC [1] was 0.968, the IC50 [1] was > 2000 nM and the AUC [2] was 0.989. The IC50 [2] was > 5.12 µM, the AUC [3] was 0.973 and the IC50 [3] was > 5.12 µM. The AUC [4] was 0.991, the IC50 [4] was > 2000 nM and the AUC [5, 12] was 0.99. The IC50 [5, 12] was > 4 µM, the AUC [5, 13] was 0.978 and the IC50 [5, 13] was > 5.12 µM. For the same cell line, the AUC [6] was 0.984, the IC50 [6] was > 20 µM and the AUC [7] was 0.423. The IC50 [7] was 632 nM, the AUC [8] was 0.975 and the IC50 [8] was > 8 µM. For the same cell line, the AUC [9, 14] was 0.991, the IC50 [9, 14] was > 5 µM and the AUC [9, 15] was 0.971. For the same cell line, the IC50 [9, 15] was > 10 µM, the AUC [10] was 0.883 and the IC50 [10] was 8.87 µM. For the same cell line, the AUC [11] was 0.982 and the IC50 [11] was > 10 µM.

GT3TKB (stomach, adherent) was tested, and the AUC [1] was 0.944, the IC50 [1] was > 2000 nM and the AUC [2] was 0.864. The IC50 [2] was 3.62 µM, the AUC [3] was 0.987 and the IC50 [3] was > 5.12 µM. For the same cell line, the AUC [4] was 0.985, the IC50 [4] was > 2000 nM and the AUC [5, 12] was 0.939. The IC50 [5, 12] was > 4 µM, the AUC [5, 13] was 0.859 and the IC50 [5, 13] was 3.48 µM. The AUC [6] was 0.988, the IC50 [6] was > 20 µM and the AUC [7] was 0.354. For the same cell line, the IC50 [7] was 416 nM, the AUC [8] was 0.946 and the IC50 [8] was > 8 µM. The AUC [9, 14] was 0.961, the IC50 [9, 14] was > 5 µM and the AUC [9, 15] was 0.777. The IC50 [9, 15] was 3.54 µM, the AUC [10] was 0.751 and the IC50 [10] was 2.95 µM. The AUC [11] was 0.99 and the IC50 [11] was > 10 µM.
